# The other results are listed elsewhere or left out.
# B1: CGL (Crenomytilus grayanus), H2FH31 (protein)
# chain: MTTFLIKHKASGKFLHPYGGSSNPANNTKLVLHSDIHERMYFQFDVVDERWGYIKHVASGKIVHPYGGQANPPNETNMVLHQDRHDRALFAMDFFNDNIMHKGGKYIHPKGGSPNPPNNTETVIHGDKHAAMEFIFVSPKNKDKRVLVYA
# What was measured:
# Assay in all cases: glycan array binding signal (z-score within array); higher = stronger binding
# Conditions in all cases: glycan notation: IUPAC condensed, linker removed
# [1] = target: Man(a1-2)Man(a1-3)[Man(a1-2)Man(a1-6)]Man
# Method in brief: (§1)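 Columns mapping to the same glycan were averaged after glycan names were converted to IUPAC-condensed notation. The data come from 3228 arrays in the Consortium for Functional Glycomics database, limited to those with an available protein sequence. Binding is reported as a within-array Z-score averaged across arrays of one protein sequence and across linkers.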
# [2] = target: Man(a1-2)Man(a1-3)[Man(a1-2)Man(a1-6)]Man(a1-6)[Man(a1-2)Man(a1-2)Man(a1-3)]Man
# Method in brief: as §1
# [3] = target: Man(a1-2)Man(a1-3)[Man(a1-2)Man(a1-6)]Man(a1-6)[Man(a1-2)Man(a1-2)Man(a1-3)]Man(b1-4)GlcNAc(b1-4)GlcNAc
# Method in brief: as §1
# [4] = target: Man(a1-2)Man(a1-3)[Man(a1-6)]Man(a1-6)[Man(a1-2)Man(a1-3)]Man(b1-4)GlcNAc(b1-4)GlcNAc
# Method in brief: as §1
# [5] = target: Man(a1-2)Man(a1-6)[Man(a1-3)]Man(a1-6)[Man(a1-2)Man(a1-2)Man(a1-3)]Man
# Method in brief: as §1
# [6] = target: Man(a1-2)Man(a1-6)[Man(a1-3)]Man(a1-6)[Man(a1-2)Man(a1-2)Man(a1-3)]Man(b1-4)GlcNAc(b1-4)GlcNAc
# Method in brief: as §1
# [7] = target: Man(a1-3)[Man(a1-6)]Man
# Method in brief: as §1
# [8] = target: Man(a1-3)[Man(a1-6)]Man(a1-6)[Man(a1-2)Man(a1-3)]Man(b1-4)GlcNAc(b1-4)GlcNAc
# Method in brief: as §1
# [9] = target: Man(a1-3)[Man(a1-6)]Man(a1-6)[Man(a1-3)]Man
# Method in brief: as §1
# [10] = target: Man(a1-3)[Man(a1-6)]Man(a1-6)[Man(a1-3)]Man(b1-4)GlcNAc(b1-4)GlcNAc
# Method in brief: as §1
# [11] = target: Man(a1-3)[Man(a1-6)]Man(b1-4)GlcNAc(b1-4)GlcNAc
# Method in brief: as §1
# [12] = target: Man(a1-3)[Man(a1-6)]Man(b1-4)GlcNAc(b1-4)[Fuc(a1-6)]GlcNAc
# Method in brief: as §1
# [13] = target: Man(a1-6)Man
# Method in brief: as §1
# [14] = target: Man(b1-4)GlcNAc
# Method in brief: as §1
# [15] = target: MurNAc(b1-4)GlcNAc
# Method in brief: as §1
# [16] = target: Neu5Ac(a2-3)Gal
# Method in brief: as §1
# [17] = target: Neu5Ac(a2-3)Gal(b1-3)GalNAc
# Method in brief: as §1
# [18] = target: Neu5Ac(a2-3)Gal(b1-3)GalNAc(b1-3)Gal(a1-4)Gal(b1-4)Glc
# Method in brief: as §1
# [19] = target: Neu5Ac(a2-3)Gal(b1-3)GalNAc(b1-4)Gal(b1-4)Glc
# Method in brief: as §1
# [20] = target: Neu5Ac(a2-3)Gal(b1-3)GalNAc(b1-4)[Neu5Ac(a2-3)]Gal(b1-4)Glc
# Method in brief: as §1
# [21] = target: Neu5Ac(a2-3)Gal(b1-3)GalNAc(b1-4)[Neu5Ac(a2-8)Neu5Ac(a2-3)]Gal(b1-4)Glc
# Method in brief: as §1
# [22] = target: Neu5Ac(a2-3)Gal(b1-3)GalNAc6S
# Method in brief: as §1
# [23] = target: Neu5Ac(a2-3)Gal(b1-3)GlcNAc
# Method in brief: as §1
# [24] = target: Neu5Ac(a2-3)Gal(b1-3)GlcNAc(b1-2)Man
# Method in brief: as §1
# [25] = target: Neu5Ac(a2-3)Gal(b1-3)GlcNAc(b1-2)Man(a1-3)[GlcNAc(b1-4)][Neu5Ac(a2-3)Gal(b1-3)GlcNAc(b1-2)Man(a1-6)]Man(b1-4)GlcNAc(b1-4)GlcNAc
# Method in brief: as §1
# [26] = target: Neu5Ac(a2-3)Gal(b1-3)GlcNAc(b1-2)Man(a1-3)[Neu5Ac(a2-3)Gal(b1-3)GlcNAc(b1-2)Man(a1-6)]Man(b1-4)GlcNAc(b1-4)GlcNAc
# Method in brief: as §1
# [27] = target: Neu5Ac(a2-3)Gal(b1-3)GlcNAc(b1-2)[Neu5Ac(a2-3)Gal(b1-3)GlcNAc(b1-4)]Man(a1-6)[Neu5Ac(a2-3)Gal(b1-3)GlcNAc(b1-2)Man(a1-3)]Man(b1-4)GlcNAc(b1-4)GlcNAc
# Method in brief: as §1
# [28] = target: Neu5Ac(a2-3)Gal(b1-3)GlcNAc(b1-3)Gal(b1-3)GlcNAc
# Method in brief: as §1
# [29] = target: Neu5Ac(a2-3)Gal(b1-3)GlcNAc(b1-3)Gal(b1-4)GlcNAc
# Method in brief: as §1
# [30] = target: Neu5Ac(a2-3)Gal(b1-3)GlcNAc(b1-3)GalNAc
# Method in brief: as §1
# [31] = target: Neu5Ac(a2-3)Gal(b1-3)GlcNAc(b1-6)GalNAc
# Method in brief: as §1
# [32] = target: Neu5Ac(a2-3)Gal(b1-3)GlcNAc6S
# Method in brief: as §1
# [33] = target: Neu5Ac(a2-3)Gal(b1-3)[Fuc(a1-4)]GlcNAc
# Method in brief: as §1
# [34] = target: Neu5Ac(a2-3)Gal(b1-3)[Fuc(a1-4)]GlcNAc(b1-3)Gal(b1-3)[Fuc(a1-4)]GlcNAc
# Method in brief: as §1
# [35] = target: Neu5Ac(a2-3)Gal(b1-3)[Fuc(a1-4)]GlcNAc(b1-3)Gal(b1-4)[Fuc(a1-3)]GlcNAc
# Method in brief: as §1
# [36] = target: Neu5Ac(a2-3)Gal(b1-3)[GlcNAc(b1-6)]GalNAc
# Method in brief: as §1
# [37] = target: Neu5Ac(a2-3)Gal(b1-3)[Neu5Ac(a2-6)]GalNAc
# Method in brief: as §1
# [38] = target: Neu5Ac(a2-3)Gal(b1-3)[Neu5Ac(a2-6)]GlcNAc(b1-3)[Fuc(a1-3)[Gal(b1-4)]GlcNAc(b1-6)]Gal(b1-4)Glc
# Method in brief: as §1
# [39] = target: Neu5Ac(a2-3)Gal(b1-3)]Neu5Ac(a2-3)Gal(b1-4)]GlcNAc
# Method in brief: as §1
# [40] = target: Neu5Ac(a2-3)Gal(b1-4)Glc
# Method in brief: as §1
# [41] = target: Neu5Ac(a2-3)Gal(b1-4)GlcNAc
# Method in brief: as §1
# [42] = target: Neu5Ac(a2-3)Gal(b1-4)GlcNAc(b1-2)Man
# Method in brief: as §1
# [43] = target: Neu5Ac(a2-3)Gal(b1-4)GlcNAc(b1-2)Man(a1-3)[GlcNAc(b1-4)][Neu5Ac(a2-3)Gal(b1-4)GlcNAc(b1-2)Man(a1-6)]Man(b1-4)GlcNAc(b1-4)GlcNAc
# Method in brief: as §1
# [44] = target: Neu5Ac(a2-3)Gal(b1-4)GlcNAc(b1-2)Man(a1-3)[Neu5Ac(a2-3)Gal(b1-4)GlcNAc(b1-2)Man(a1-6)]Man(b1-4)GlcNAc(b1-4)GlcNAc
# Method in brief: as §1
# [45] = target: Neu5Ac(a2-3)Gal(b1-4)GlcNAc(b1-2)Man(a1-3)[Neu5Ac(a2-3)Gal(b1-4)GlcNAc(b1-2)Man(a1-6)]Man(b1-4)GlcNAc(b1-4)[Fuc(a1-6)]GlcNAc
# Method in brief: as §1
binder,measurement,setting,value
B1,glycan array binding signal (z-score),[1],-0.443
same,glycan array binding signal (z-score),[2],-0.438
same,glycan array binding signal (z-score),[3],-0.372
same,glycan array binding signal (z-score),[4],-0.384
same,glycan array binding signal (z-score),[5],-0.435
same,glycan array binding signal (z-score),[6],-0.357
same,glycan array binding signal (z-score),[7],-0.291
same,glycan array binding signal (z-score),[8],-0.278
same,glycan array binding signal (z-score),[9],-0.36
same,glycan array binding signal (z-score),[10],-0.328
same,glycan array binding signal (z-score),[11],-0.395
same,glycan array binding signal (z-score),[12],-0.379
same,glycan array binding signal (z-score),[13],-0.367
same,glycan array binding signal (z-score),[14],-0.269
same,glycan array binding signal (z-score),[15],-0.335
same,glycan array binding signal (z-score),[16],-0.357
same,glycan array binding signal (z-score),[17],-0.327
same,glycan array binding signal (z-score),[18],-0.288
same,glycan array binding signal (z-score),[19],-0.332
same,glycan array binding signal (z-score),[20],-0.236
same,glycan array binding signal (z-score),[21],-0.346
same,glycan array binding signal (z-score),[22],-0.332
same,glycan array binding signal (z-score),[23],-0.281
same,glycan array binding signal (z-score),[24],-0.314
same,glycan array binding signal (z-score),[25],-0.406
same,glycan array binding signal (z-score),[26],-0.382
same,glycan array binding signal (z-score),[27],-0.329
same,glycan array binding signal (z-score),[28],-0.388
same,glycan array binding signal (z-score),[29],-0.356
same,glycan array binding signal (z-score),[30],-0.337
same,glycan array binding signal (z-score),[31],-0.234
same,glycan array binding signal (z-score),[32],-0.349
same,glycan array binding signal (z-score),[33],-0.362
same,glycan array binding signal (z-score),[34],-0.359
same,glycan array binding signal (z-score),[35],-0.273
same,glycan array binding signal (z-score),[36],-0.485
same,glycan array binding signal (z-score),[37],-0.331
same,glycan array binding signal (z-score),[38],-0.271
same,glycan array binding signal (z-score),[39],-0.301
same,glycan array binding signal (z-score),[40],-0.344
same,glycan array binding signal (z-score),[41],-0.303
same,glycan array binding signal (z-score),[42],-0.261
same,glycan array binding signal (z-score),[43],-0.349
same,glycan array binding signal (z-score),[44],-0.323
same,glycan array binding signal (z-score),[45],-0.389
